Data on 45 molecules can be found in publication PMC4336329 (PLoS ONE, 2015).

Among all 310,000 compounds or so, about 14,000 (4.5%) showed an effect of 50% or more. The effect is printed as a negative number. Some of the results follow.
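Further: peak tail current of the secondary pulse compared with the same well before compound.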

Sequence of human ether-à-go-go-related gene (hERG) potassium channel (Q12809 whole entry, looked up): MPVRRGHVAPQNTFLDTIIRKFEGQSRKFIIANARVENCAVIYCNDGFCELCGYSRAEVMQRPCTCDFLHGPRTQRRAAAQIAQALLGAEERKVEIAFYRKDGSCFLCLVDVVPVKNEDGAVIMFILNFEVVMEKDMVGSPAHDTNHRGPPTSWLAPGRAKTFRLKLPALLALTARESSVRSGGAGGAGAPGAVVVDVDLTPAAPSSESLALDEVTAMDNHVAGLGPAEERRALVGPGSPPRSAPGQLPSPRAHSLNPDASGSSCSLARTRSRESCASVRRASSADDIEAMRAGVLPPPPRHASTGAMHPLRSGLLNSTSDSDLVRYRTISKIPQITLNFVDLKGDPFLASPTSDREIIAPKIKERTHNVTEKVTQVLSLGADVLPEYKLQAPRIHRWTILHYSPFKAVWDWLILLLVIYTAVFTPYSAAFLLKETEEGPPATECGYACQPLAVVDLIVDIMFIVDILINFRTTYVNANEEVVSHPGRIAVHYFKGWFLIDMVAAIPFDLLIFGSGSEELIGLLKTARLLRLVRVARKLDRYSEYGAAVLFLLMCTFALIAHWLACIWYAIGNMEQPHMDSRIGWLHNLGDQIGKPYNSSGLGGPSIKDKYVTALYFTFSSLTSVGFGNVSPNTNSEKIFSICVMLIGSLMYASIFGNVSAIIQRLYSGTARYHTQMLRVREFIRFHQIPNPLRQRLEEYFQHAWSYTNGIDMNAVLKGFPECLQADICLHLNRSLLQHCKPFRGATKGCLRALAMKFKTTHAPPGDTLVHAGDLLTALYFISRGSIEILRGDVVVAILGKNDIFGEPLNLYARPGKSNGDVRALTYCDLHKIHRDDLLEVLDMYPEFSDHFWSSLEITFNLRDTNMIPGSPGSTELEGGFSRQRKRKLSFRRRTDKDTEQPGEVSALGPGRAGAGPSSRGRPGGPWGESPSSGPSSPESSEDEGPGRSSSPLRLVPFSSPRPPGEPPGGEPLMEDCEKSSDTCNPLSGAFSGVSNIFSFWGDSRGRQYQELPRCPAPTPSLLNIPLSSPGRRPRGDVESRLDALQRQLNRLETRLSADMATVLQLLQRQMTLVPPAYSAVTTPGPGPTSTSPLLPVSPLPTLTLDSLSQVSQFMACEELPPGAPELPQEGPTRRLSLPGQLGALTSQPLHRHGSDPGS

The experiment has as its target human ether-à-go-go-related gene (hERG) potassium channel (human, UniProt Q12809). The experiment in a line: primary screen, population patch clamp on CHO cells stably expressing hERG.
`O=C1COc2ccc(-c3csc(NCC4CCCO4)n3)cc2N1` (stereo not drawn): the “hERG current change (%, negative = inhibition) at 10uM” value came out at 3.87%. For `O=C(O)[C@H](CSCc1ccccc1)NS(=O)(=O)c1ccc(F)cc1`, the “hERG current change (%, negative = inhibition) at 10uM” value is -0.928%.

Consider `COCc1cc(C)n(CC(=O)NCC2CCCO2)c(=O)c1C#N` (stereo not drawn), for which the “hERG current change (%, negative = inhibition) at 10uM” value stood at 12%. The value for `Cl.O=C(CN1CCCCCC1)Nc1cccc2c1OCO2` was -8.62%; that for `Cc1nc(-c2ccc(S(=O)(=O)Nc3ccc(S(N)(=O)=O)cc3)cc2)co1` was 24.5%; that for `COc1cc([N+](=O)[O-])c(N2CCOCC2)c([N+](=O)[O-])c1OC` was -4.15%. The value for `CC1(c2ccc3ccccc3c2)NC(=O)N(CC(=O)Nc2ncccc2O)C1=O` (stereo not drawn) was 3.73%. The value for `Cc1cccc(CC(=O)Nc2cc(=O)n(C)c(=O)n2C)c1` was 3.82%; that for `CCN(CC(=O)Nc1ccc(NC(C)=O)cc1)C(=O)c1ccc(COc2ccccc2)o1` was 11.7%; that for `COC(=O)c1ccccc1NC(=O)NC1CCC(C)CC1` (stereo not drawn) was -19.3%. `COc1cccc(N2CCN(C(=O)c3c(C)nn(-c4ccccc4)c3C)CC2)c1`: the “hERG current change (%, negative = inhibition) at 10uM” value amounted to 5.19%.

Consider `COc1ccc(NC(=O)C(=O)c2cn(CC(=O)N3CCCC3)c3ccccc23)cc1`, for which the “hERG current change (%, negative = inhibition) at 10uM” value turned out to be 6.79%. To `CCN1CCN(c2ccc(S(=O)(=O)N3CCOCC3)cc2NC(=O)/C=C/c2ccc(OC)cc2OC)CC1` belongs -17.2%; to `CCCCn1c(N)c(N(CCOC)C(=O)CSc2n[nH]c(-c3ccc(C)cc3)n2)c(=O)[nH]c1=O`, -5.32%; to `O=C(CCn1c(=O)sc2ccccc21)Nc1cccnc1`, -15.2%.

On to `COc1cccc2c1C(=O)C[C@]1(CCCC[C@@H]1C)O2`, for which the “hERG current change (%, negative = inhibition) at 10uM” value is -15.1%.

With `O=C(Nc1c2c(nn1-c1ccc(Cl)cc1)CS(=O)(=O)C2)C1CC1`, the “hERG current change (%, negative = inhibition) at 10uM” value is given as -26.8%. The value for `O=S(=O)(Nc1ccc(N2CCOCC2)cc1)c1ccc(F)cc1` was 4.3%; that for `N/C(=N\OC(=O)Nc1ccccc1)c1ncc(C(F)(F)F)cc1Cl` was 10.3%. The value for `Cc1nn(C)c(Oc2cccc(Cl)c2)c1C(=O)Nc1ccc(F)cc1F` was -5.84%.

Regarding `Cc1nnc(NC(=O)c2ccc3ccccc3n2)s1`, the “hERG current change (%, negative = inhibition) at 10uM” value amounted to 11.8%. The value for `Fc1ccc(C(CCNCc2ccccn2)c2ccc(Cl)cc2)cc1` (stereo not drawn) was -77.5%. To `COCCN(Cc1cn(C)nc1-c1ccccc1F)C(C)C` belongs 15.5%. The value for `COc1ccccc1NS(=O)(=O)c1cccc(N=C2N=C(N)c3ccccc32)c1` was 11.7%; that for `COc1cccc(OCCCCCCN2CCOCC2)c1` was -8.21%; that for `O=C(Nc1ccc(O)c(-c2nc3ccccc3o2)c1)C1(c2ccc([N+](=O)[O-])cc2)CCCC1` was 0.668%. With `Cl.Fc1cccc(Cl)c1CNCc1ccccc1Cl`, the “hERG current change (%, negative = inhibition) at 10uM” value was -18.4%. Regarding `COc1cc(NS(=O)(=O)c2c(C)[nH]c(C)c2C(=O)N2CCCCC2)cc(OC)c1OC`, the “hERG current change (%, negative = inhibition) at 10uM” value came to 5.18%.

Take `Cc1ccc(NS(=O)(=O)c2ccc3c(c2)oc(=O)n3C)cc1C`: the “hERG current change (%, negative = inhibition) at 10uM” value was 1.18%. The value for `O=C(N/N=C/c1ccccc1[N+](=O)[O-])c1ccc2c(c1)OCCO2` was 12.8%. The value for `CCOc1cc(NC(=S)NC)c(OCC)cc1NC(=O)c1ccco1` was -2.08%. To `CC(Sc1nnc(-c2cccnc2)n1-c1ccccc1F)C(=O)N1CCCc2ccccc21` (stereo not drawn) belongs -22.8%. `Cc1ccccc1NC(=O)CN1CCC(n2nnc3ccccc32)CC1`: the “hERG current change (%, negative = inhibition) at 10uM” value is listed as -38.8%.

For `CC(C)(C)c1ccc(NC(=O)COC(=O)c2ccc([N+](=O)[O-])s2)cc1`, the “hERG current change (%, negative = inhibition) at 10uM” value is listed as 0.947%. To `O=S(=O)(Nc1ccc(N=Nc2ccccc2)cc1)c1ccccc1` belongs 1.45%; to `CC(c1nc2ccccc2c(=O)[nH]1)N(C)c1ccc2ccccc2c1` (stereo not drawn), -7.73%; to `CC(Oc1ccccc1)C(=O)N1CCN(c2ncccn2)CC1` (stereo not drawn), 3.58%. The value for `CCN1C(=O)N[C@@H](c2cccs2)C(C(=O)OC)=C1C` was 10.2%; that for `COC(=O)/C=C1\SC(=NC(=O)c2cccc(Cl)c2)NC1=O` was -79.5%; that for `CCn1c(-c2ccc3[nH]c(C)c(C)c3c2)n[nH]c1=S` was 25%.

As for `OCC(O)CSc1nc(-c2ccccc2)nc2c1CCC2` (stereo not drawn), the “hERG current change (%, negative = inhibition) at 10uM” value is 2.22%. To `COc1ccc(C2C(C#N)=C3NC(=O)c4c(sc5c4CCCCC5)N3C3=C2C(=O)CC(C)(C)C3)cc1` (stereo not drawn) belongs 5.83%; to `O=C(C1CCC1)N1CCN(S(=O)(=O)c2cccc(F)c2)CC1`, -10.5%.

Turning to `Cn1nnnc1SCC(=O)Nc1ncc(Cl)cc1Cl`, the “hERG current change (%, negative = inhibition) at 10uM” value is on record as -10.3%.

For the molecule `CCc1nnc(NC(=O)CN2CCN(c3cccc(OC)c3)CC2)s1`, the “hERG current change (%, negative = inhibition) at 10uM” value is on record as -5.75%.
